In patent US20240287089A1, “Preparation and Uses of 7-Azaindenoisoquinolines” (Purdue Research Foundation, priority 0001, published 2024):

Assays:
[1] = in vivo, iv, 20 mg/kg
[2] = mouse, 1 μM
[3] = Pharmacokinetics IV and PO in male CD1 mice
[4] = male, mouse, microsomes, 1 μM
[5] = male, CD1, mouse, plasma, iv, 1 mg/kg

With `CCNCCCn1c2c(c3cc(OC)c(OC)cc3c1=O)C(=O)c1cc3c(nc1-2)OCO3` [G104, 6-(3-(Ethylamino)propyl)-2,3-dimethoxy-5H-[1,3]dioxolo[4″,5″:5′,6′]pyrido [3′,2′:4,5]cyclopenta[1,2-c]isoquinoline-5,12(6H)-dione] the AUCInf ([1]; male, CD1, mouse) was 2316 ng·h/mL, the AUClast ([1]; male, CD1, mouse) was 2160 ng·h/mL and the C0 ([1]; male, CD1, mouse) was 1164 ng/mL. For the same compound, the Cl_obs ([1]; male, CD1, mouse) was 144 mL/min/kg, the T1/2 ([1]; male, CD1, mouse) was 7.06 h and the “Brain/Plasma Conc Ratio” value ([1]; male, CD1, mouse, 0.25 h) was 1.88. For the same compound, the “Brain/Plasma Conc Ratio” value ([1]; male, CD1, mouse, 0.5 h) was 2.40, the “Brain/Plasma Conc Ratio” value ([1]; male, CD1, mouse, 1 h) was 3.81 and the “Brain/Plasma Conc Ratio” value ([1]; male, CD1, mouse, 2 h) was 5.65. The “Brain/Plasma Conc Ratio” value ([1]; male, CD1, mouse, 4 h) was 3.58, the “Brain/Plasma Conc Ratio” value ([1]; male, CD1, mouse, 8 h) was 6.22 and the “Brain/Plasma Conc Ratio” value ([1]; male, CD1, mouse, 24 h) was 16.4. For the same compound, the AUClast ([1]; mouse) was 10293 ng·h/g, the “% Stability at 6 hrs” value [2] was 86.57% and the AUCInf ([3]; IV 1 mg/kg, male CD1 mice) was 156 ng·h/mL. The AUClast ([3]; IV 1 mg/kg, male CD1 mice) was 142 ng·h/mL, the AUClast/D ([3]; IV 1 mg/kg, male CD1 mice) was 142 ng·h/mL and the “AUC—% Extrap—obs” value ([3]; IV 1 mg/kg, male CD1 mice) was 8.98%. For the same compound, the C0 ([3]; IV 1 mg/kg, male CD1 mice) was 119 ng/mL, the Cl_obs ([3]; IV 1 mg/kg, male CD1 mice) was 107 mL/min/kg and the “MRTInf—obs” value ([3]; IV 1 mg/kg, male CD1 mice) was 2.66 h. The T1/2 ([3]; IV 1 mg/kg, male CD1 mice) was 2.73 h, the AUCInf ([3]; PO 10 mg/kg, male CD1 mice) was 222 ng·h/mL and the AUClast ([3]; PO 10 mg/kg, male CD1 mice) was 202 ng·h/mL. For the same compound, the AUClast/D ([3]; PO 10 mg/kg, male CD1 mice) was 20.2 ng·h/mL, the “AUC—% Extrap—obs” value ([3]; PO 10 mg/kg, male CD1 mice) was 8.81% and the Cmax ([3]; PO 10 mg/kg, male CD1 mice) was 16.2 ng/mL. The “F (fraction of the dose absorbed)” value ([3]; PO 10 mg/kg, male CD1 mice) was 14.2%, the “MRTInf—obs” value ([3]; PO 10 mg/kg, male CD1 mice) was 9.43 h and the T1/2 ([3]; PO 10 mg/kg, male CD1 mice) was 6.91 h. For the same compound, the Tmax ([3]; PO 10 mg/kg, male CD1 mice) was 0.25 h, the Vd [3, 5] was 17 L/kg and the half-life [3, 5] was 2.73 h. For the same compound, the half-life ([3]; male, CD1, mouse, plasma, po, 10 mg/kg) was 6.91 h, the “Scaled-up CLint” value [4] was 38.38 mL/min/kg and the T1/2 [4] was 2.6332 h. The “in vitro CLint” value [4] was 8.77 μL/min/mg protein.

Where two headings read alike, the source gives them in different places.
